# Reference: PubChem BioAssay AID720707 (National Center for Advancing Translational Sciences (NCATS), 2013)
# Hit rate of the full screen: of about 360,000 compounds, about 270 (0.075%) were called active. The inconclusive results got no clear call from the source; some entries with a clear call stand among them for comparison. The call rests on the fitted dose curve; in most records, active means well fitted activation curve with a large enough effect; inconclusive means small, poorly fitted or top-dose-only effect; inactive means no such curve, though single readings can be large or run the other way. No potency is given beside an inconclusive call; the fits are too rough.
# Target: Rap guanine nucleotide exchange factor 3 (Homo sapiens) (UniProt O95398)
# Chain of UniProt O95398 (O95398 whole entry, looked up): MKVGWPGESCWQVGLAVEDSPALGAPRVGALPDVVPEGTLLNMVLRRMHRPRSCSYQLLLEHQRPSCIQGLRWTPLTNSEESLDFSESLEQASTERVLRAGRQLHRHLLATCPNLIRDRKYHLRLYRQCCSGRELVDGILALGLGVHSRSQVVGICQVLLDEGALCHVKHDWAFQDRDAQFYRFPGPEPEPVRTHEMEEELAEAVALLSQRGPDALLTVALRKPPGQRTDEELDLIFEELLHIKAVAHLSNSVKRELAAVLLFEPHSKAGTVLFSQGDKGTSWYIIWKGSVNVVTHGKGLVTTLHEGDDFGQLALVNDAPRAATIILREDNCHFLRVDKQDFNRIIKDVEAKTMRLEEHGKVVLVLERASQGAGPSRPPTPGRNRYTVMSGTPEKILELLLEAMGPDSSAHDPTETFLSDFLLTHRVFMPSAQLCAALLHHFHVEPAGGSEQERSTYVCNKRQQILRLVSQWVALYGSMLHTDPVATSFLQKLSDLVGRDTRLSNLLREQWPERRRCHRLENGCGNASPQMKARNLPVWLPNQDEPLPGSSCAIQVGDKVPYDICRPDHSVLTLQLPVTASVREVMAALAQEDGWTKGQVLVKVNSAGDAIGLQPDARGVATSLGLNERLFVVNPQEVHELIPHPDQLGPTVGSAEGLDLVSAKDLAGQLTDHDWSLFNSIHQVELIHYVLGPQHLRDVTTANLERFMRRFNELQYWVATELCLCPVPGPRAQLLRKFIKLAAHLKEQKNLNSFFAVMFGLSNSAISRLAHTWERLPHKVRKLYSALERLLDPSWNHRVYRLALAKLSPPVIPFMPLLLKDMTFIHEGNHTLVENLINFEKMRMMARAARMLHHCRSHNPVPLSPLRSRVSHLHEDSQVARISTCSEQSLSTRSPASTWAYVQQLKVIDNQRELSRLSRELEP
# Assay: qHTS for Agonist of cAMP-regulated guanine nucleotide exchange factor 3 (EPAC1): primary screen; further: nearly all actives have a fitted effect of over 60% in size
# Conditions: biochemical assay; activation: at 154 µM (top of the series), 100% = response to 6.5 mM cAMP
# Method in brief: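 Nucleotide exchange assay: 100 nM EPAC1 with 250 nM Rap1B loaded with BODIPY-GDP and 50 uM GDP, room temperature. Fluorescence (480/540 nm) read every 5 min for 30 min; signal change normalized to 6.5 mM cAMP as full agonist.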
# Potency means the concentration at half of the fitted maximal effect; tags describe the fitted curve by direction and shape.
SMILES,Potency,activation
CC(C)COc1cccc(C(=O)Nc2ccc(S(=O)(=O)N3CCOCC3)cc2)c1,"inconclusive [activator, partial curve]",
COc1cccc(OC)c1C(=O)Nc1sc2c(c1C(N)=O)CCN(Cc1ccccc1)C2,"inconclusive [activator, single point]",
CN(CC(=O)Nc1cccc(F)c1)C(=O)c1cccc(-n2cccc2)c1,"inconclusive [activator, full curve]",
c1ccc(CCNc2ncnc3c2cnn3-c2ccccc2)cc1,"inconclusive [activator, partial curve]",
CC1Sc2ccc(C(=O)OCc3ccccc3Cl)cc2NC1=O (configuration not stated),active: 50.1 µM,
COc1ccc(O)c(C(=O)c2cc(SCC(=O)O)c3nc4sc5c(c4c(=O)n3c2)CCCC5)c1,"inconclusive [activator, full curve]",
O=C1Nc2ccccc2-n2nnnc2C1N1CCCN(Cc2ccc(F)cc2)CC1 (configuration not stated),"inconclusive [activator, full curve, poor fit]",
CCN(CC(=O)Nc1c(F)cccc1F)C(=O)c1cc(-c2cccs2)nn1-c1ccccc1,"inconclusive [activator, single point]",
Cc1ccc(C)c2nc3sc(C(=O)N4CCCc5ccccc54)c(N)c3cc12,"inconclusive [activator, single point]",
COc1ccc2oc3cc(Cl)ccc3c(=O)c2c1,,inactive: 4.92%
CCCCCCN1C[C@H](O)[C@@H](n2cc(C3CC3)nn2)C[C@@H]1c1ccc(C)cc1,,inactive: -23%
COc1ccccc1/C=C1\SC(=S)N(NS(=O)(=O)c2ccc(C)cc2)C1=O,,inactive: -4.16%
CCc1cccc(NC(=O)CCc2nc3sc4c(c3c(=O)[nH]2)CCCC4)c1,"inconclusive [activator, full curve, poor fit]",
O=C(NN=Cc1c(O)ccc2ccccc12)c1ccncc1,"inconclusive [activator, partial curve]",
Cc1cc(C)c(S(=O)(=O)N2CCCCC2CCNC(=O)C(=O)NCC2CCCO2)c(C)c1 (configuration not stated),"inconclusive [activator, single point]",
O=C(CN1C(=O)CCC1=O)Nc1nc(-c2ccc(Oc3ccccc3)cc2)cs1,"inconclusive [activator, partial curve]",
O=C1COc2ccc(S(=O)(=O)N3CCc4ccccc43)cc2N1,,inactive: 1.43%
O=C(O)c1ccc(N=Nc2c(O)[nH]c3cc(Cl)ccc23)cc1,"inconclusive [activator, partial curve]",
Cc1cccn2c(=O)nc(SCC(=O)N3N=C(c4cccs4)CC3c3ccc(F)cc3)nc12 (configuration not stated),"inconclusive [activator, full curve, poor fit]",
COc1cccc(C2C(C(=O)c3ccc(C)o3)=C(O)C(=O)N2c2cc(C)on2)c1 (configuration not stated),,inactive: 11.1%
CCN(CC)C(=O)C(=O)c1cccn1-c1ccc(C#N)cc1,,inactive: -13.8%

SMILES,Potency,activation
Cc1ccc(NS(=O)(=O)c2ccc(N/N=C/c3ccccc3OCC(=O)O)c([N+](=O)[O-])c2)c(C)c1,"inconclusive [activator, single point]",
CN(CC(=O)Nc1cccc(F)c1)C(=O)c1cccc(S(=O)(=O)N2CC3(C)CC2CC(C)(C)C3)c1 (configuration not stated),"inconclusive [activator, partial curve, poor fit]",
O=C1Cc2ccccc2C(=O)N1Cc1ccccc1,,inactive: 3.06%
O=C(CN1CCN(c2ccc([N+](=O)[O-])cc2)CC1)c1ccccc1,,inactive: 7.65%
Cc1cnc(C(=O)OCC(=O)c2c(N)n(CC(C)C)c(=O)n(C)c2=O)cn1,"inconclusive [activator, single point]",
O=C(O)COc1ccccc1/C=N/Nc1ccc(S(=O)(=O)Nc2ccc(Cl)cc2)cc1[N+](=O)[O-],"inconclusive [activator, partial curve]",
CCCCCn1c(=O)[nH]c2cc(C(=O)NCCCN(CC)CC)ccc2c1=O,,inactive: 3.83%
Nc1cc(Cl)ccc1Oc1ccc(Cl)cc1,"inconclusive [activator, partial curve]",
N#C/C(=C\c1ccc(N2CCOCC2)o1)C(=O)N1CCOCC1,"inconclusive [activator, full curve, poor fit]",
Cc1ccc(NCc2nnc(SCC(=O)NNC(=O)Cc3ccccc3)n2C)cc1,,inactive: -4.39%
Cc1ccc(/C=C/C(=O)c2ccc(N3CCOCC3)cc2)s1,"inconclusive [activator, single point]",
Cc1ccnc(N/C=C(\C#N)c2nc(-c3cccc(Br)c3)cs2)c1,"inconclusive [activator, partial curve]",
CCc1noc(C)c1C(=O)N1CCCSC1=Nc1ccccc1C(C)C,"inconclusive [activator, partial curve]",
COc1ccc(C(=O)OCC(=O)NC2CC2)cc1S(=O)(=O)N(C)Cc1ccccc1,"inconclusive [activator, full curve, poor fit]",
CS(=O)(=O)Nc1nc2n(n1)C(c1ccccc1)C=C(c1ccc(Br)cc1)N2 (configuration not stated),"inconclusive [activator, partial curve]",
Cc1cc(Nc2ccccc2)nn1C(=O)c1ccccc1,"inconclusive [activator, partial curve]",
OCCN(CCO)c1nc(N2CCCCC2)c2nc(N(CCO)CCO)nc(N3CCCCC3)c2n1,active: 100 µM,
CCc1ccc(S(=O)(=O)N/N=C\c2cn(CC(N)=O)c3ccccc23)cc1,"inconclusive [activator, single point]",
C/C=C/C(=O)Nc1cccc(C2=NOC3(C2)C[C@@H](C(N)=O)N(C(=O)/C(C)=C/C)C3)c1 (some centres not stated),"inconclusive [activator, single point]",
CC(C)(C)NC(=O)NC(=O)CN1CCN(S(=O)(=O)c2ccc3c(c2)CCCC3)CC1,active: 56.2 µM,
CCCN(CC(=O)Nc1ccccc1OC)C(=O)c1cccc(S(=O)(=O)Nc2ccc(OC)cc2)c1,"inconclusive [activator, single point]",
